According to publication PMC5836133:
Some of the results follow. At the low end of the ranking the order means little.

test system: T1, GST-NbGlk1(82-244); experiment: protein-binding microarray; settings: NbGlk1 is a Golden2-like transcription factor of Nicotiana benthamiana; high values mean tight binding; most listed sequences are background and not binding sites; double strand, one strand shown;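 further: rank-based score ranging −0.5 to +0.5 with E above 0.45 taken as significant binding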
T1 sequence: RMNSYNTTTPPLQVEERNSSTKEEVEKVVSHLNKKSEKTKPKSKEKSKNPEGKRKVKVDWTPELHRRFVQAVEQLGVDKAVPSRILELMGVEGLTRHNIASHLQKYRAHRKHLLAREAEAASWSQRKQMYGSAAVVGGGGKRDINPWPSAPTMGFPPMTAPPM

| Sequence | binding signal |
| --- | --- |
| AACTCTGG | -0.112 E-score |
| AAGTTTAA | -0.0311 E-score |
| CAATCACG | 0.159 E-score |
| AAATCTGC | 0.456 E-score |
| AGTGAAGA | -0.014 E-score |
| ACGATGTA | -0.11 E-score |
| ACTAAGAA | 0.107 E-score |
| AGATCCGA | 0.307 E-score |
| AGTCAAAC | -0.0735 E-score |
| ATGTCGAG | -0.0524 E-score |
| ATTGTAAG | 0.0633 E-score |
| AGCAGAGA | 0.0378 E-score |
| CAACCTTG | -0.245 E-score |
| AATTTCGA | 0.259 E-score |
| ATAGTGAT | 0.0465 E-score |
| ACCGACTG | -0.171 E-score |
| AGCAAGCG | -0.122 E-score |
| AGGTCAAT | -0.00434 E-score |
| AATCTTAT | 0.377 E-score |
| CACTTGGA | 0.156 E-score |
| ACTCCTCG | -0.0848 E-score |
| AATACTAA | 0.164 E-score |
| AGTGGGTA | -0.0607 E-score |
| ACAGCGCA | -0.0303 E-score |
| ATCAGTCC | -0.128 E-score |

| Sequence | binding signal |
| --- | --- |
| ATCCTTTA | 0.274 E-score |
| ACCCCTAC | -0.258 E-score |
| ACGTTTGG | -0.00266 E-score |
| ATCTAGAT | 0.398 E-score |
| ATTCCCGC | 0.178 E-score |
| AAGGCTTA | -0.203 E-score |
| CACTGATC | 0.108 E-score |
| ATCTATAG | 0.288 E-score |
| AGGCGAGA | -0.0186 E-score |
| AGTGCGAT | 0.313 E-score |
| AATCATAT | 0.28 E-score |
| ATTTGCCA | 0.358 E-score |
| CAATACGA | 0.164 E-score |
| CAATCCCG | 0.284 E-score |
| ACTGTGTA | 0.00924 E-score |
| ACCTCGTC | -0.169 E-score |
| ACCTGCTC | -0.225 E-score |
| AAAAGGCC | -0.235 E-score |
| AGTCCTTG | -0.227 E-score |
| ACCGGTCG | -0.149 E-score |
| ACCTATTC | -0.0697 E-score |
| ACCGGAGT | -0.12 E-score |
| AAGGAGCC | -0.189 E-score |
| AACCGAAG | -0.00877 E-score |
| AAATATTG | 0.229 E-score |

| Sequence | binding signal |
| --- | --- |
| ACACCGAG | -0.0776 E-score |
| AGCCCCCC | -0.288 E-score |
| ACCCGTTG | -0.317 E-score |
| CAATCCGG | 0.328 E-score |
| AATAGCGC | -0.0474 E-score |
| AAAGACAC | -0.00667 E-score |
| ATGCGAAC | -0.0312 E-score |
| AAGCATAT | 0.213 E-score |
| AGGAAAAA | 0.0992 E-score |
| ACAATTGG | -0.00064 E-score |
| CACCACCG | -0.0244 E-score |
| ACCCACTA | -0.092 E-score |
| ATAGCCAG | -0.134 E-score |
| ATTTGCTC | 0.253 E-score |
| ATGGGGAC | -0.138 E-score |
| ACGTCGGC | -0.186 E-score |
| ACAGGAGG | -0.111 E-score |
| ACGACTAC | -0.105 E-score |
| AATAGAAA | 0.132 E-score |
| AGTCGAGC | -0.318 E-score |
| AACACCGA | 0.0733 E-score |
| AACACGAC | -0.189 E-score |
| CAGAAGTC | -0.0489 E-score |
| AGCTGACG | -0.171 E-score |
| ATGGAAAG | -0.0678 E-score |

| Sequence | binding signal |
| --- | --- |
| CACTCAGC | -0.154 E-score |
| AGTATTCG | 0.0703 E-score |
| AACGCAAA | 0.115 E-score |
| ATCATGGC | 0.0394 E-score |
| CAAGAGAC | -0.124 E-score |
| AAAGCTAG | 0.0285 E-score |
| CACATAGA | 0.107 E-score |
| AAGGCTGA | -0.197 E-score |
| AGTGGTCC | -0.257 E-score |
| ACTAAAGT | -0.0581 E-score |
| AGTGTCTC | -0.00738 E-score |
| ACCGATCG | 0.0385 E-score |
| AATTTGGA | 0.157 E-score |
| ACGCGTTG | -0.124 E-score |
| ACTGAGCT | -0.125 E-score |
| ACGCATTC | -0.102 E-score |
| ATTGGGGA | 0.0378 E-score |
| ACGAACGC | -0.121 E-score |
| AGTTTCAT | 0.00185 E-score |
| AAAGGCAA | -0.0276 E-score |
| ATGCCATC | -0.0958 E-score |
| AGATGTTC | 0.055 E-score |
| ACCAGTAC | -0.189 E-score |
| ATCTGGTA | 0.238 E-score |
| CAAATGCA | -0.0146 E-score |

| Sequence | binding signal |
| --- | --- |
| AGGACGAT | 0.176 E-score |
| ATGCATCA | -0.00345 E-score |
| AGAATACT | -0.0088 E-score |
| ACGGAAAC | -0.201 E-score |
| AGTGCAGA | 0.13 E-score |
| AGTACGGC | -0.215 E-score |
| AAGGCGCA | -0.118 E-score |
| ACCTGTAA | 0.0445 E-score |
| ATTCGAAC | 0.109 E-score |
| ATCATTCC | -0.0969 E-score |
| ACAGGAAC | -0.105 E-score |
| AACATAGA | 0.0936 E-score |
| AATCCGCT | 0.388 E-score |
| CAGCCCAA | -0.113 E-score |
| AACAAAGA | 0.0614 E-score |
| AGTCTACC | -0.233 E-score |
| ACACTTCT | -0.00471 E-score |
| AAAAGTTT | -0.000852 E-score |
| AGGCGTTC | -0.191 E-score |
| AGAAGCCC | -0.355 E-score |
| AATAATAG | 0.181 E-score |
| AGCGGATA | 0.27 E-score |
| ACGCGGTG | -0.213 E-score |
| CAAATAGC | -0.0948 E-score |
| ATAAATAT | 0.292 E-score |

| Sequence | binding signal |
| --- | --- |
| AAGGCTCC | -0.343 E-score |
| AGGATTAC | 0.449 E-score |
| ATAAGAAC | 0.0653 E-score |
| AAGCCCAA | -0.172 E-score |
| AGACATCA | 0.0261 E-score |
| ACTGTCCA | -0.129 E-score |
| AGAACACT | -0.0433 E-score |
| AATTTACA | 0.134 E-score |
| ACGCTGGA | -0.112 E-score |
| CAAGCCCG | -0.344 E-score |
| ATTGTATC | 0.0886 E-score |
| AGTTTATC | -0.137 E-score |
| AAAGGATT | 0.372 E-score |
| ATAGAACC | -0.0986 E-score |
| AACTGCGT | -0.0817 E-score |
| AGTGTTTG | 0.0123 E-score |
| AGAGACCT | -0.205 E-score |
| ACTTCGTA | 0.0587 E-score |
| AGGGGTAC | -0.27 E-score |
| AATAATAA | 0.28 E-score |
| ATACGGAA | 0.173 E-score |
| ATAGCGAA | 0.167 E-score |
| AGCGGGTA | -0.113 E-score |
| AGTTTAAC | -0.0229 E-score |
| CACTGCCC | -0.308 E-score |

| Sequence | binding signal |
| --- | --- |
| ACTAAATC | 0.213 E-score |
| AGGTCGAG | -0.179 E-score |
| ATGATTCA | 0.0749 E-score |
| AACAAAAC | 0.0449 E-score |
| AAAGATAA | 0.122 E-score |
| ATTTGACG | 0.169 E-score |
| ACTCGTAA | 0.247 E-score |
| AGGCTTAC | -0.337 E-score |
| ATCTTCCC | 0.24 E-score |
| AAAATACC | 0.137 E-score |
| ACTCGTAT | 0.00375 E-score |
| ATGTAGAA | 0.0373 E-score |
| AACTGGTG | -0.172 E-score |
| AACTCGTC | -0.117 E-score |
| AGGACTGA | -0.0878 E-score |
| AATCTGGC | 0.416 E-score |
| AGGAGCCA | -0.155 E-score |
| CAACCTTA | -0.21 E-score |
| ACAGCTAC | -0.179 E-score |
| ATTGCCTA | 0.133 E-score |
| CAAAGGAA | -0.0301 E-score |
| AGATTTTG | 0.465 E-score |
| ATTTGCGC | 0.248 E-score |
| AGAAACGG | -0.055 E-score |
| CAATGGCC | -0.192 E-score |

| Sequence | binding signal |
| --- | --- |
| ACGACCTC | -0.285 E-score |
| ACTCATTC | -0.0306 E-score |
| AACACCAT | -0.0456 E-score |
| AGTTTTAG | -0.0519 E-score |
| AATGGTTA | -0.0471 E-score |
| ATTGCTAC | 0.23 E-score |
| AGGGAGTG | -0.203 E-score |
| CACGCAGA | 0.0599 E-score |
| AACAAGCC | -0.0982 E-score |
| ACGCGATA | 0.252 E-score |
| AGCAACAT | -0.132 E-score |
| ATGATTGG | -0.0558 E-score |
| AGTGTACG | -0.2 E-score |
| ACCGCAGT | -0.123 E-score |
| AATCAGAG | 0.229 E-score |
| AGATTGAG | 0.0933 E-score |
| ATTTGGTG | 0.213 E-score |
| ACTGAAAG | -0.00188 E-score |
| AAGGTACT | -0.0699 E-score |
| AGGGTCGA | -0.198 E-score |
| AACATGGT | -0.137 E-score |
| CAAGATAG | 0.0883 E-score |
| ATTCTACC | 0.168 E-score |
| ACGGAGCA | -0.133 E-score |
| AGGACCGG | -0.258 E-score |

| Sequence | binding signal |
| --- | --- |
| ATTGGGAA | 0.0688 E-score |
| ATACTCAT | 0.264 E-score |
| AGCCCACG | -0.213 E-score |
| AATGATCA | 0.0783 E-score |
| AATTGTAA | 0.189 E-score |
| ACCACAAC | -0.0247 E-score |
| ACTACAGT | -0.148 E-score |
| AGTACCAT | -0.097 E-score |
| ATCTTATG | 0.195 E-score |
| CAAAACCC | -0.0619 E-score |
| ATAGAGTC | -0.153 E-score |
| ATCGCACG | 0.179 E-score |
| AGACGGCG | -0.299 E-score |
| CACTATGC | 0.0838 E-score |
| AAAGGGTT | -0.177 E-score |
| AAACCGAG | -0.171 E-score |
| ATACCTGA | 0.0214 E-score |
| AGTGAACT | -0.202 E-score |
| CACCTGCG | -0.101 E-score |
